According to patent publication US7105166 (Bristol-Myers Squibb, dated 2006):

Assays:
[1] = biological target: T1, human CD86 expressed on stably transfected CHO cells (human, UniProt P42081 24-329); test: FACS titration on human CD86 CHO cells, FITC goat anti-human immunoglobulin, mean fluorescence intensity
T1 construct: whole, on cells; also called CD86+ CHO cells; human CD86 CHO-transfected cells
T1 sequence (looked up): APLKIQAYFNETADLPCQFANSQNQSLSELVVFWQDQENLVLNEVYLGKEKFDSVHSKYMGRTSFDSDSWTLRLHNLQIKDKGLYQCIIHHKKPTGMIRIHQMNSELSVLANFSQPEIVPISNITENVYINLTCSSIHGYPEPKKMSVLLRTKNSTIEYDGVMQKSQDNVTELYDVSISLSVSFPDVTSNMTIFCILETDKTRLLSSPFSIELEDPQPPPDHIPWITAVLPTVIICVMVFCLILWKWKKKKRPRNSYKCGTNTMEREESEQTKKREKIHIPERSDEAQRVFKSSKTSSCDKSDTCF

[2] = biological target: T2, B7 antigen (B7-1, CD80) expressed on cells (human, UniProt P33681 35-288); test: enzyme immunoassay on ethanol-fixed B7-1+ CHO cells, HRP goat anti-human IgG, A450
T2 construct: whole, on cells; Stably transfected CHO cells; in the MLR and IgM assays the B7 antigen of the stimulating B cells; also called B7^+ CHO cells; B7-1 positive CHO cells
T2 sequence (looked up): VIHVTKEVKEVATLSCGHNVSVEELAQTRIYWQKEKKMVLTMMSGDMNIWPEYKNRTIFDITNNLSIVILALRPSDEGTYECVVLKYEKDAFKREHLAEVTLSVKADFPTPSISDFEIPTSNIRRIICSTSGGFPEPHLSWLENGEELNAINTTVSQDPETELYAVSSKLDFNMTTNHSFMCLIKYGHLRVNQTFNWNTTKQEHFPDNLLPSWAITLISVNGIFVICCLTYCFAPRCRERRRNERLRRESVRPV

[3] = biological target: T2, B7 antigen (B7-1, CD80) expressed on …; test: FACS titration on human CD80 CHO cells, FITC goat anti-human immunoglobulin, mean fluorescence intensity
[4] = biological target: T2, B7 antigen (B7-1, CD80) expressed on …; test: FACS titration on CD80 CHO cells, fluorescein goat anti-human IgG, mean fluorescence intensity
[5] = biological target: T2, B7 antigen (B7-1, CD80) expressed on …; test: enzyme immunoassay on ethanol-fixed B7-1+ CHO cells, HRP goat anti-human IgG, A450; remark: listed apart in the source
[6] = biological target: T3, CD28 expressed on transfected cells (human, UniProt P10747 19-220); test: indirect immunofluorescence, FACS, FITC goat anti-human Ig second step
T3 construct: In COS cells expressed from OMCD28, in which the native signal peptide is replaced by that of oncostatin M; also called CD28-transfected COS cells; CD28^+ CHO cells

[7] = biological target: T1, human CD86 expressed on stably …; test: cell-based or functional assay
[8] = biological target: T1, human CD86 expressed on stably …; test: FACS titration on CD86 CHO cells, fluorescein goat anti-human IgG, mean fluorescence intensity
CD5Ig = biological target: T4, CD5Ig (human, UniProt P06127 25-371; P01857 part only = IgG part); test: indirect immunofluorescence, FACS, transfected COS cells, FITC anti-mouse and anti-human Ig second step
T4 construct: range 1-347;domain: hinge, CH2 and CH3 regions; Control fusion protein; also called control CD5Ig fusion protein

T3 sequence (P10747 other isoform, or with tags, fused parts or gaps limits assumed): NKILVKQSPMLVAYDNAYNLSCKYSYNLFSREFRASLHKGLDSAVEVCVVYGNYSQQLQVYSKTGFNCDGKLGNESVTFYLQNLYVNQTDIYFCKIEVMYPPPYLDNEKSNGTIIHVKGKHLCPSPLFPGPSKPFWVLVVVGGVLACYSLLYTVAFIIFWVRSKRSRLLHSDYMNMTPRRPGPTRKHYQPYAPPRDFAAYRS

B1: CTLA4Ig (Fc fusion)
chain: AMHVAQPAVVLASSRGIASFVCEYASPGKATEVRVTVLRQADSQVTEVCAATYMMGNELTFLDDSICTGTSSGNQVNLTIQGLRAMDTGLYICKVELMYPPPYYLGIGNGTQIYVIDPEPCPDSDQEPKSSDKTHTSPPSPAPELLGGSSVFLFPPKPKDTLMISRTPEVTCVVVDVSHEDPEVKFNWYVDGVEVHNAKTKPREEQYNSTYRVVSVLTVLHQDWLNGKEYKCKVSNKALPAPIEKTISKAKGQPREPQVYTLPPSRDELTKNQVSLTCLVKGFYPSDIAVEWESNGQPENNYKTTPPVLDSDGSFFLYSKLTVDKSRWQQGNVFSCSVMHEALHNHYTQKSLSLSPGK
notes: also called wild type CTLA4Ig; human CTLA4Ig fusion protein
[1]
  binding result: binds
[2]
  EC50 (read off the curve): ~0.03 µg/mL
[3]
  EC50 (read off the curve): ~0.05 µg/mL
[4]
  EC50 (read off the curve): ~0.05 µg/mL
[5]
  EC50 (read off the curve): ~0.01 µg/mL
[6]
  binding result: no binding (tested: 10 µg/ml (from the text))

B2: L104EA29YIg (Fc fusion)
chain: AMHVAQPAVVLASSRGIASFVCEYASPGKYTEVRVTVLRQADSQVTEVCAATYMMGNELTFLDDSICTGTSSGNQVNLTIQGLRAMDTGLYICKVELMYPPPYYEGIGNGTQIYVIDPEPCPDSDQ[sequence of human IgG1 Fc with changes omitted]
notes: The entry may carry the signal peptide; also called L104E29YIg
[1]
  EC50 (read off the curve): ~0.06 µg/mL
[3]
  EC50 (read off the curve): ~0.05 µg/mL
[7]
  inhibition of proliferation of CD86+PMA treated human T cells: ~10 fold

B3: L104EIg (Fc fusion)
chain: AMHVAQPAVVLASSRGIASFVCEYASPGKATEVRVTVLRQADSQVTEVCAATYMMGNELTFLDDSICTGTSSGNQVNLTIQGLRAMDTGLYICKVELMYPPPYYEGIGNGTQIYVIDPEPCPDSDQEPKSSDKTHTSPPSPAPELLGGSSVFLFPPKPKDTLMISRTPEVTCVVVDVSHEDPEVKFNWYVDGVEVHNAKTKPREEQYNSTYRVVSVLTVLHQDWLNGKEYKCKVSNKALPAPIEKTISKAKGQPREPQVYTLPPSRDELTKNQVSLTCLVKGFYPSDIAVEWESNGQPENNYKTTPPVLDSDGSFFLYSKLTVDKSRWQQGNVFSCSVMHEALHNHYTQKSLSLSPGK
notes: The entry may carry the signal peptide
[1]
  EC50 (read off the curve): ~0.06 µg/mL
[3]
  EC50 (read off the curve): ~0.05 µg/mL
[4]
  EC50 (read off the curve): ~0.06 µg/mL

B4: L104EG105FIg (Fc fusion)
chain: AMHVAQPAVVLASSRGIASFVCEYASPGKATEVRVTVLRQADSQVTEVCAATYMMGNELTFLDDSICTGTSSGNQVNLTIQGLRAMDTGLYICKVELMYPPPYYEFIGNGTQIYVIDPEPCPDSDQ[sequence of human IgG1 Fc with changes omitted]
[4]
  EC50 (read off the curve): ~0.1 µg/mL

B5: L104ES25RIg (Fc fusion)
chain: AMHVAQPAVVLASSRGIASFVCEYARPGKATEVRVTVLRQADSQVTEVCAATYMMGNELTFLDDSICTGTSSGNQVNLTIQGLRAMDTGLYICKVELMYPPPYYEGIGNGTQIYVIDPEPCPDSDQ[sequence of human IgG1 Fc with changes omitted]
[8]
  binding result: binds

B6: CTLA4 receptor expressed on transfected COS cells (receptor)
chain: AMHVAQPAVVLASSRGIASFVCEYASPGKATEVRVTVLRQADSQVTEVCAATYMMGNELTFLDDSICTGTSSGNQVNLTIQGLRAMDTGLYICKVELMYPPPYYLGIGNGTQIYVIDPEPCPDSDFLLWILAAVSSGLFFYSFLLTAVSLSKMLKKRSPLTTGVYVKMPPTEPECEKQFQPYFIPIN
notes: The entry includes the oncostatin M signal peptide; also called OMCTLA4; CTLA4-transfected COS cells
CD5Ig
  binding result: no binding (tested: 10 µg/ml (from the text))
